Results reported in PubChem BioAssay AID651820 (National Center for Advancing Translational Sciences (NCATS), 2012).
Hit rate of the full screen: of about 340,000 compounds, about 12,000 (3.5%) were called active. Inconclusive results, whose numbers are uncertain, are shown with a selection of clear calls. Calls come from the whole dose curve; as a rule, active = well fitted inhibition curve with a large enough effect; inconclusive = small, poorly fitted or top-dose-only effect, or another doubt; inactive = no such curve, though single readings can be large or run the other way. Potencies of inconclusive entries are left out as doubtful fits.

Experiment: qHTS Assay for Inhibitors of Hepatitis C Virus (HCV)
Details: Huh7.5.1 HCVcc-Cre (HCVcc is cell-culture hepatitis C virus) infection, luciferase reporter, 44 h; series mostly up to 41.8 µM
Procedure, shortened: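 Infectious HCVcc-Cre (~0.5 moi) was added to cells just after compound, with cells seeded 4 h earlier at 1,000 per well. Luciferase activity after 44 h culture reported infection; substrate was incubated 15 min at room temperature before reading.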
Potency is the fitted concentration of half-maximal effect; tags give direction and shape of the fitted curve.

SMILES | Potency
C=Cc1ccc(C(=O)N2CCCC(Nc3ccc4c(c3)OCCO4)C2)cc1 (centres undefined) | inactive
CCCC(=O)N(Cc1cccnc1)c1nc2c(OC)ccc(Cl)c2s1 | inconclusive [inhibitor, partial curve]
O=C(Cc1cccs1)Nc1nc2c(s1)CCCC2 | inconclusive [inhibitor, full curve, poor fit]
Cn1cccc1/C=N/NC(=O)c1cccc(OC(F)(F)C(F)F)c1 | inconclusive [inhibitor, partial curve]
O=C(COc1ccc(Br)cc1)Nc1ccccc1C(=O)NC1CC1 | inconclusive [inhibitor, partial curve]
Cc1ccc(-c2csc(NC(=O)c3cccc(N4C(=O)CCC4=O)c3)n2)o1 | inconclusive [inhibitor, single point]
CC(=Nc1ccccc1O)c1sc2ccccc2c1O | inconclusive [inhibitor, single point]
Cc1nn(C)c(C)c1NC(=O)CSc1nc(C2CC2)nc2c1cnn2-c1ccccc1 | inconclusive [inhibitor, full curve]
COc1ccc(NC(=O)c2nc(SC)ncc2Cl)cc1 | inactive
CC1Cc2cc(-c3csc(NC(=O)Cc4ccccc4)n3)ccc2N1S(C)(=O)=O (centres undefined) | active: 0.708 µM
Fc1ccc(NC(=S)N2CCCC2)cc1Cl | inactive
Cc1cccc(NC(=S)N2CCC(c3nc4ccccc4s3)CC2)c1 | inconclusive [inhibitor, single point]
O=C1C2CCCCN2C(=O)N1CCCCN1CCN(c2cccc(C(F)(F)F)c2)CC1 (centres undefined) | inconclusive [inhibitor, single point]
Cc1occc1C(=O)N1CCC2(CCCN(Cc3ccc(F)c(F)c3)C2)C1 (centres undefined) | inconclusive [inhibitor, single point]
Cc1ccc(S(=O)(=O)NN2C(=O)c3ccccc3NC2c2ccccc2)cc1 (centres undefined) | inconclusive [inhibitor, single point]
COCCn1c(=O)[nH]c(=O)c2cc(C(=O)c3cc(Cl)ccc3O)cnc21 | active: 1.78 µM
O=c1c2ccccc2oc2cc(NCCCn3ccnc3)ccc12 | inconclusive [inhibitor, single point]
O=C(c1cc(-c2ccccc2)on1)N1CCN(Cc2ccc3c(c2)OCO3)CC1 | inactive
Cc1onc(-c2ccccc2Cl)c1C(=O)N(C)C1CCCCC1 | inactive
Cc1ccc(NC(=O)c2ccc3c(=O)n4c(nc3c2)CCCCC4)nc1 | inconclusive [inhibitor, partial curve]
COc1ccc(C(C(=O)Nc2ccc(C(C)C)cc2)N(Cc2ccco2)C(=O)CC2NC(=O)NC2=O)cc1 (centres undefined) | inconclusive [inhibitor, single point]
Nc1ccc(C(=O)OCC(=O)N2CCc3ccccc3C2)cc1[N+](=O)[O-] | inactive

SMILES | Potency
CC(C)CCNC(=O)C1CCCCN1S(=O)(=O)c1ccc(F)cc1 (centres undefined) | inconclusive [inhibitor, partial curve]
Cc1ccc(C(C)C)c(OC/C(O)=C(\C#N)c2nc3ccccc3[nH]2)c1 | inconclusive [inhibitor, partial curve]
COc1ccc(/C=C/C(=O)OCC(=O)c2ccc(S(=O)(=O)N3CCCCC3)cc2)cc1OC | inconclusive [inhibitor, single point]
COC(C[C@H]1O[C@@H]1C(=O)[C@H](C)OCc1ccccc1)OC | inconclusive [inhibitor, partial curve, poor fit]
CCOC(=O)c1c(-c2ccc(OC)cc2)csc1NC(=O)CCN1CCOCC1 | inconclusive [inhibitor, single point]
C#CCOCCOCCOCCNc1nc(N2CCN(C(=O)Cn3cc(CCO)nn3)CC2)nc(N2CCN(C(=O)Cn3cc(CC(C)O)nn3)CC2)n1 (centres undefined) | inactive
O=C(O)c1ccc(S(=O)(=O)N2CCCC2)cc1 | inconclusive [inhibitor, single point]
COc1ccccc1CNC(=O)C(=O)NCC1CCCO1 (centres undefined) | inactive
Cc1ccc(S(=O)(=O)c2cc3c(=O)n4ccccc4nc3n(CCCN3CCOCC3)c2=N)cc1C | inconclusive [inhibitor, partial curve]
COc1ccc(-n2c(O)c(/C=N/Nc3nc(C)cc(C)n3)c3ccccc3c2=O)cc1OC | active: 2.82 µM
O=C(CN1CCN(c2ccc(F)cc2)CC1)c1cccs1 | inactive
Cc1ccc(NC(=O)C(C)c2cccc(C(=O)c3ccccc3)c2)cc1O (centres undefined) | inconclusive [inhibitor, partial curve]
Cc1cc(C)c2nc(NC(=O)c3ccc([N+](=O)[O-])o3)sc2c1 | inactive
Cc1ccc(S(=O)(=O)N2CCN(C(=O)CSC3CCCC3)CC2)c(C)c1 | inconclusive [inhibitor, single point]
C#CC(CC)(CC)NC(=O)c1nn(-c2ccccc2Cl)c(C)cc1=O | inconclusive [inhibitor, single point]
COc1ccc2o/c(=N\O)c(C(=O)Nc3ccc(C)cc3)cc2c1 | active: 10 µM
Cn1ccnc1Sc1cc(Cl)ccc1[N+](=O)[O-] | inactive
CNC(=O)c1cccn(Cc2cc(C(F)(F)F)cc(C(F)(F)F)c2)c1=O | inconclusive [inhibitor, single point]
CC1CN(C)CCC1OC(=O)c1ccccc1 (centres undefined) | inactive
CCn1cc(C(=O)OCC(=O)Nc2ccc(S(=O)(=O)N3CCCC3)cc2)c(=O)c2ccc(C)nc21 | inconclusive [inhibitor, single point]
Cc1ccc2nc(Cl)c3cc(C(=O)N(CCN(C)C)Cc4ccco4)sc3c2c1 | inconclusive [inhibitor, full curve]
CN(C(=O)c1cccc(NC(=O)Cc2ccc([N+](=O)[O-])cc2)c1)C1CCCC1 | inconclusive [inhibitor, single point]
